Results taken from the antibiotic and cytotoxicity screens of Wong et al. (2023).
The other results are listed elsewhere or left out.

Assays:
[1] = test system: HSkMC (human skeletal muscle cells); assay: cytotoxicity call (relative viability < 0.9); details: 10 µM
[2] = test system: HepG2; assay: cytotoxicity call (relative viability < 0.9); details: 10 µM
[3] = test system: S. aureus RN4220; assay: growth inhibition call (relative growth <= 0.2); details: 50 µM

SMILES | cytotoxicity call [1] | cytotoxicity call [2] | growth inhibition call [3]
C[C@@H]1CN([C@@H](C)CO)C(=O)c2cc(NC(=O)CCCN(C)C)ccc2O[C@@H](C)CCCCO[C@H]1CN(C)CC1CCCCC1 | inactive | inactive | inactive
C[C@@H]1CN([C@@H](C)CO)C(=O)c2cc(NC(=O)C3CCCCC3)ccc2O[C@@H]1CN(C)Cc1ccc(Oc2ccccc2)cc1 | inactive | inactive | inactive
C[C@@H]1CN([C@H](C)CO)C(=O)c2cccc(NC(=O)c3cnccn3)c2O[C@@H]1CN(C)Cc1ccncc1 | inactive | inactive | inactive
CCCCC[C@@H](O)C[C@@H](O)CC(=O)O[C@@H](CCCCC)C[C@@H](O)CC(=O)OC[C@@H](O)[C@@H](O)[C@@H](O)[C@@H](O)CO | inactive | inactive | inactive
Cc1ccc(S(=O)(=O)N(C)C[C@@H]2Oc3ccc(NC(=O)Cn4cnnn4)cc3CC(=O)N([C@@H](C)CO)C[C@H]2C)cc1 | inactive | inactive | inactive
COc1ccc(S(=O)(=O)N(C)C[C@H]2Oc3ccc(NS(=O)(=O)c4ccccc4)cc3CC(=O)N([C@@H](C)CO)C[C@H]2C)cc1 | inactive | inactive | inactive
COc1ccc(S(=O)(=O)N2C[C@H](O)COC[C@@H]3O[C@@H](CC(=O)NCCCN(C)C)CC[C@H]32)cc1 | inactive | inactive | inactive
CC1(C)SC2C(NC(=O)Cc3ccccc3)C(=O)N2C1C(=O)[O-].[K+] (centres undefined) | inactive | inactive | active
Cc1noc(C)c1NC(=O)N(C)C[C@H]1Oc2c(NS(=O)(=O)c3ccccc3)cccc2C(=O)N([C@H](C)CO)C[C@@H]1C | inactive | inactive | inactive
O=C(C[C@@H]1C[C@H]2c3cc(NC(=O)c4ccc5c(c4)OCO5)ccc3O[C@H]2[C@H](CO)O1)NCc1ccccn1 | inactive | inactive | inactive
CCNC(=O)[C@@H]1CCCN1C(=O)[C@H](CCCN=C(N)N)NC(=O)[C@H](CC(C)C)NC(=O)[C@@H](COC(C)(C)C)NC(=O)[C@H](Cc1ccc(O)cc1)NC(=O)[C@H](CO)NC(=O)[C@H](Cc1c[nH]c2ccccc12)NC(=O)[C@H](Cc1c[nH]cn1)NC(=O)[C@@H]1CCC(=O)N1 | inactive | inactive | inactive
C[C@H](CO)N1C[C@H](C)[C@@H](CN(C)C(=O)Cc2cccnc2)Oc2ncc(C#CCc3ccccc3)cc2C1=O | inactive | inactive | inactive
CCCNC(=O)Nc1ccc2c(c1)OC[C@@H](C)N(Cc1ccc(-c3ccccn3)cc1)C[C@H](C)[C@H](OC)CN(C)C2=O | inactive | inactive | inactive
C[C@H](CO)N1C[C@H](C)[C@H](CN(C)C(=O)Cc2cccnc2)Oc2ncc(C#CCc3ccccc3)cc2C1=O | inactive | inactive | inactive
CN1C(=O)c2cc(NS(=O)(=O)c3cccc(F)c3)ccc2OC[C@@H]2O[C@H](CC(=O)NCCN3CCCCC3)CC[C@H]21 | inactive | inactive | inactive
CC1CC2C(C(O)CC3(C)C2CCC3(O)C(=O)COC(=O)CCC(=O)[O-])C2(C)C=CC(=O)C=C12.[Na+] (centres undefined) | inactive | inactive | inactive
C[C@@H]1CCCCO[C@@H](CN(C)C(=O)Nc2ccc(F)cc2)[C@@H](C)CN([C@H](C)CO)C(=O)c2cc(NS(=O)(=O)c3cccs3)ccc2O1 | inactive | inactive | inactive
C[C@@H]1CCCCO[C@@H](CN(C)S(C)(=O)=O)[C@H](C)CN([C@@H](C)CO)C(=O)c2cc(NC(=O)CCCN(C)C)ccc2O1 | inactive | inactive | inactive
O=C(C[C@H]1C[C@@H]2c3cc(NC(=O)NC4CCCC4)ccc3O[C@@H]2[C@@H](CO)O1)NCc1ccc(Oc2ccccc2)cc1 | inactive | inactive | inactive
CCC(=O)Nc1ccc2c(c1)C(=O)N(C)C[C@H](OC)[C@H](C)CN(C(=O)CN1CCOCC1)[C@@H](C)CO2 | inactive | inactive | inactive
C[C@H]1CN([C@@H](C)CO)C(=O)c2cc(NC(=O)C3CCCCC3)ccc2O[C@@H]1CN(C)C(=O)Nc1ccc(C(F)(F)F)cc1 | inactive | inactive | inactive
C[C@H]1CN([C@@H](C)CO)C(=O)c2cc(NC(=O)Nc3ccc(C(F)(F)F)cc3)ccc2O[C@H]1CN(C)Cc1ccc(C(F)(F)F)cc1 | active | inactive | inactive
C[C@@H]1CN([C@@H](C)CO)C(=O)c2cc(NS(=O)(=O)c3ccccc3)ccc2O[C@@H]1CN(C)Cc1ccc(-c2ccccc2)cc1 | active | active | inactive
